Where a name gives a salt, the structure may show the parent alone. ± gives the standard deviation of the averaged measurements. The full ranking holds about 1,300 compounds; the median of “normalised cell viability” is about 1, and the lowest 2% start at about 0.14. The list shows a part of the results.
Tested on: V-C8 (BRCA2-deficient hamster cells)
Experiment: normalised cell viability (fraction of plate median); higher = more viable cells (less toxic)
Conditions: 5 µM
How it was run: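 Hamster V-C8 cells with and without restored BRCA2 were exposed in 96-well plates to library drugs at 5 μM for 3 days (screen 1) or 6 days (screen 2). Cell viability was scored by resazurin assay, then median-plate normalised, averaging triplicate wells.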

Structure (SMILES) | normalised cell viability (treatment time: 3 days) | normalised cell viability (treatment time: 6 days)
Nc1ccc(S(=O)(=O)NC(=O)c2ccccc2)cc1 [Sulfabenzamide] | 0.92 ± 0.013 | 0.97 ± 0.063
C=C(CC)C(=O)c1ccc(OCC(=O)O)c(Cl)c1Cl [Ethacrynic acid] | 1.08 ± 0.038 | 1.01 ± 0.048
C1N2CN3CN1CN(C2)C3 [Methenamine] | 1.01 ± 0.064 | 1.03 ± 0.082
O=C1NCCN1c1ncc([N+](=O)[O-])s1 [Niridazole] | 1.06 ± 0.041 | 1.12 ± 0.02
CCCCCN(C)CCC(O)(P(=O)(O)O)P(=O)(O)O [Ibandronate sodium] | 0.681 ± 0.085 | 0.174 ± 0.029
C[C@@H](O)[C@H]1C(=O)N2C(C(=O)O)=C(SCCNC=N)C[C@H]12 [Imipenem] | 1.12 ± 0.098 | 1.05 ± 0.027
c1ccc2c(c1)CCCC2C1=NCCN1 (stereo unspecified) [Tetrahydrozoline hydrochloride] | 1.02 ± 0.059 | 1.02 ± 0.051
CC(C)(C)C(=O)OCOC(=O)[C@@H]1N2C(=O)[C@@H](/N=C/N3CCCCCC3)[C@H]2SC1(C)C [Pivmecillinam hydrochloride] | 0.959 ± 0.056 | 1.01 ± 0.039
CNc1ncnc2c1ncn2[C@@H]1O[C@H](CO)[C@@H](O)[C@H]1O [N6-methyladenosine] | 1.12 ± 0.018 | 0.996 ± 0.024
OCC(O)CN1CCN(c2ccccc2)CC1 (racemic) [Dropropizine (R,S)] | 0.964 ± 0.051 | 1.01 ± 0.057
CCOC(=O)Nc1ccc2c(c1)N(C(=O)CCN1CCOCC1)c1ccccc1S2 [Moricizine hydrochloride] | 1.1 ± 0.13 | 1.13 ± 0.083
COC(=O)[C@H]1[C@H]2C[C@@H]3c4[nH]c5cc(OC)ccc5c4CCN3C[C@H]2C[C@@H](OC(=O)c2cc(OC)c(OC)c(OC)c2)[C@@H]1OC [Reserpine] | 0.861 ± 0.027 | 0.919 ± 0.026
CNC(=C[N+](=O)[O-])NCCSCc1ccc(CN(C)C)o1 [Ranitidine hydrochloride] | 1.02 ± 0.13 | 1.08 ± 0.045
CC(C)C[C@H](NC(=O)[C@@H](O)[C@H](N)Cc1ccccc1)C(=O)O [Ubenimex] | 0.991 ± 0.032 | 0.999 ± 0.063
CCCCCCCCCCCCCCCC[N+](C)(C)CCN(Cc1ccc(OC)cc1)c1ncccn1 [Thonzonium bromide] | 0.744 ± 0.044 | 0.631 ± 0.028
CCN(CC)CCCC(C)Nc1c2ccc(Cl)cc2nc2ccc(OC)cc12 (stereo unspecified) [Quinacrine dihydrochloride dihydrate] | 0.123 ± 0.011 | 0.108 ± 0.009
CC(=O)N1CCN(c2ccc(OCC3COC(Cn4ccnc4)(c4ccc(Cl)cc4Cl)O3)cc2)CC1 (stereo unspecified) [Ketoconazole] | 0.8 ± 0.022 | 0.898 ± 0.028

Structure (SMILES) | normalised cell viability (treatment time: 3 days) | normalised cell viability (treatment time: 6 days)
CN(CCOc1ccc(NS(C)(=O)=O)cc1)CCc1ccc(NS(C)(=O)=O)cc1 [Dofetilide] | 1.08 ± 0.059 | 1.1 ± 0.028
C#C[C@]1(O)CC[C@H]2[C@@H]3CCc4cc(OC)ccc4[C@H]3CC[C@@]21C [Ethynylestradiol 3-methyl ether] | 0.844 ± 0.02 | 0.886 ± 0.17
CC(C)NCC(O)c1ccc(NS(C)(=O)=O)cc1 (stereo unspecified) [Sotalol hydrochloride] | 0.982 ± 0.045 | 1.05 ± 0.062
COC(=O)C1=C(C)NC(C)=C(C(=O)OC)C1c1ccccc1[N+](=O)[O-] [Nifedipine] | 0.934 ± 0.074 | 0.96 ± 0.068
Cc1cc(NC(=O)C2=C(O)c3ccccc3S(=O)(=O)N2C)no1 [Isoxicam] | 1.04 ± 0.06 | 1.06 ± 0.042
Cc1cc(C(C)(C)CC(C)(C)C)ccc1OCCOCC[N+](C)(C)Cc1ccccc1 [Methyl benzethonium chloride] | 0.853 ± 0.09 | 0.859 ± 0.023
CO[C@@]1(NC(=O)C2SC(=C(C(N)=O)C(=O)O)S2)C(=O)N2C(C(=O)O)=C(CSc3nnnn3C)CS[C@@H]21 (stereo partly specified) [Cefotetan] | 0.924 ± 0.016 | 0.971 ± 0.061
CN(C)CCCN1c2ccccc2CCc2ccc(Cl)cc21 [Clomipramine hydrochloride] | 0.94 ± 0.075 | 0.993 ± 0.011
CCN(CC)CCOC(=O)C1(c2ccc([N+](=O)[O-])cc2)CCCC1 [Nitrocaramiphen hydrochloride] | 1.06 ± 0.071 | 1.1 ± 0.11
Clc1ccccc1CN1CCc2sccc2C1 [Ticlopidine hydrochloride] | 1.1 ± 0.032 | 1.08 ± 0.064
Nc1ccc(O)c(C(=O)O)c1 [Mesalamine] | 1.09 ± 0.028 | 1.14 ± 0.27
Nc1ccc(S(=O)(=O)Nc2ncccn2)cc1 [Sulfadiazine] | 0.993 ± 0.022 | 1.05 ± 0.035
C#C[C@]1(OC(C)=O)CC[C@H]2[C@@H]3CCC4=C[C@@H](OC(C)=O)CC[C@@H]4[C@H]3CC[C@@]21C [Ethynodiol diacetate] | 1.04 ± 0.05 | 0.696 ± 0.23
C#C[C@]1(O)CC[C@H]2[C@@H]3CCC4=CC(=O)CC[C@@H]4[C@H]3CC[C@@]21C [Norethindrone] | 1 ± 0.076 | 1.03 ± 0.04
CO[C@@]1(NC(=O)C(C(=O)O)c2ccc(O)cc2)C(=O)N2C(C(=O)O)=C(CSc3nnnn3C)CO[C@@H]21 (stereo partly specified) [Moxalactam disodium salt] | 1.08 ± 0.014 | 1.05 ± 0.046
CC(=O)O[C@]1(C(C)=O)CC[C@H]2[C@@H]3C=C(C)C4=CC(=O)CC[C@@H]4[C@H]3CC[C@@]21C [Nomegestrol acetate] | 0.975 ± 0.062 | 1.01 ± 0.11

— the supplement of paper PMC6609913
